# Measurements published in a collection of fitness landscapes (doi:10.1016/j.celrep.2020.107928).
# In all, about 81,000 sequences were measured (“one-hybrid fitness for binding NBS DNA”: median about -0.1, highest 2% from about 0.36 on). This is one part of the list.
# B1: Caulobacter ParB omega fusion; a variant is named by its letters at X, in order, B8GW30 (parent)
# chain: MESVVVGEPGMSEGRRGLGRGLSALLGEVDAAPAQAPGEQLGGSREAPIEILQRNPDQPRRTFREEDLEDLSNSIREKGVLQPILVRPSPDTAGEYQIVAGERAWRAAQRAGLKTVPIMVRELDDLAVLEIGIIENVQRADLNVLEEALSYKVLMEKFERTQENIAQTIGKSXSHVANXMRLLXLPDEVQSYLVSGELTAXHARAIAAAADPVALAKQIIEGGLSVRETEALARKAPNLSAGKSKGGRPPRVKDTDTQALESDLSSVLGLDVSIDHRGSTGTLTITYATLEQLDDLCNRLTRGI
# Variants of: B1
# Assay: one-hybrid fitness for binding NBS DNA (the Noc-binding site; scaled: cognate 1, non-cognate 0); higher = stronger binding
# Conditions: with NBS DNA site
# How it was run: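 Fitness here means the log change in variant-to-wild-type read ratio between plasmids sequenced before and after selection. That scale was set so cognate equals 1 and non-cognate equals 0. The selection was a bacterial one-hybrid screen of Caulobacter ParB libraries, four specificity codons randomised, in E. coli USO carrying a HIS3 reporter with the site 19 bp from the promoter, grown 48 hours at 37°C on M9-minus-histidine with 0.1 mM IPTG and 5 mM 3-AT.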
row,Variant,one-hybrid fitness for binding NBS DNA
1,PYDM,≤ 0.2
2,QLYC,≤ 0.2
3,SDTE,≤ 0.2
4,YGTT,≤ 0.2
5,SEAS,≤ 0.2
6,LNQP,≤ 0.2
7,MWDV,≤ 0.2
8,QKCT,0.475
9,TSDN,≤ 0.2
10,ATAK,≤ 0.2
11,EEHA,≤ 0.2
12,RVVQ,≤ 0.2
13,SMND,≤ 0.2
14,MNLV,≤ 0.2
15,TADW,≤ 0.2
16,FHPG,≤ 0.2
17,MEKR,≤ 0.2
18,IEAG,≤ 0.2
19,LWSR,≤ 0.2
20,RGFS,≤ 0.2
21,KTRQ,≤ 0.2
22,HYGC,≤ 0.2
23,HGRS,≤ 0.2
24,FMAT,≤ 0.2
25,ANKD,≤ 0.2
26,VGPD,≤ 0.2

row,Variant,one-hybrid fitness for binding NBS DNA
1,FWPA,≤ 0.2
2,YSIC,≤ 0.2
3,DSYT,≤ 0.2
4,AQST,≤ 0.2
5,IRRY,≤ 0.2
6,VQFT,≤ 0.2
7,YMMY,≤ 0.2
8,SRKA,≤ 0.2
9,FNQG,≤ 0.2
10,TENG,≤ 0.2
11,CYML,≤ 0.2
12,KPPF,≤ 0.2
13,NNDY,≤ 0.2
14,LKMM,≤ 0.2
15,WDTR,≤ 0.2
16,GTPF,≤ 0.2
17,LNQC,≤ 0.2
18,LNTI,≤ 0.2
19,MQQC,≤ 0.2
20,EVQV,≤ 0.2
21,NYAT,≤ 0.2
22,RTKN,0.3
23,QYQP,≤ 0.2
24,HKPL,≤ 0.2
25,YREC,≤ 0.2
26,RKSP,≤ 0.2

row,Variant,one-hybrid fitness for binding NBS DNA
1,STVV,≤ 0.2
2,QQME,≤ 0.2
3,PWCS,≤ 0.2
4,RSSV,≤ 0.2
5,DTKC,≤ 0.2
6,FVDC,≤ 0.2
7,QAPH,≤ 0.2
8,YYSG,≤ 0.2
9,AWRG,≤ 0.2
10,HVDS,≤ 0.2
11,KANC,≤ 0.2
12,KMST,≤ 0.2
13,VDDG,≤ 0.2
14,TGTN,≤ 0.2
15,DWTH,≤ 0.2
16,PWDC,≤ 0.2
17,TPHP,≤ 0.2
18,RVDR,0.213
19,FPSC,≤ 0.2
20,CSYT,≤ 0.2
21,IMKE,≤ 0.2
22,QCPM,≤ 0.2
23,PDPW,≤ 0.2
24,GVPF,≤ 0.2
25,INKK,≤ 0.2
26,LQFA,≤ 0.2

row,Variant,one-hybrid fitness for binding NBS DNA
1,QVWT,0.21
2,PQVF,≤ 0.2
3,GYPG,≤ 0.2
4,WITS,≤ 0.2
5,ACTV,≤ 0.2
6,WPWS,≤ 0.2
7,LTMI,≤ 0.2
8,QLLL,≤ 0.2
9,MTLN,≤ 0.2
10,PCAT,≤ 0.2
11,RPND,≤ 0.2
12,AISY,≤ 0.2
13,AWSN,≤ 0.2
14,RLPI,≤ 0.2
15,CQTC,≤ 0.2
16,GTPG,≤ 0.2
17,YGYI,≤ 0.2
18,LQYS,≤ 0.2
19,YPKY,≤ 0.2
20,DTTE,≤ 0.2
21,PQIW,≤ 0.2
22,WTNR,≤ 0.2
23,EEYG,≤ 0.2
24,ESKN,≤ 0.2
25,AVHT,≤ 0.2
26,KGDK,≤ 0.2

row,Variant,one-hybrid fitness for binding NBS DNA
1,MSWT,≤ 0.2
2,VTRN,≤ 0.2
3,RGEI,≤ 0.2
4,CPQL,≤ 0.2
5,QLSQ,≤ 0.2
6,CSNF,≤ 0.2
7,TDVL,≤ 0.2
8,PTSC,≤ 0.2
9,QTAE,≤ 0.2
10,RNVF,≤ 0.2
11,ERIG,≤ 0.2
12,NAVY,≤ 0.2
13,RYRP,≤ 0.2
14,RPML,≤ 0.2
15,IAMS,≤ 0.2
16,TTPC,≤ 0.2
17,KEST,≤ 0.2
18,CVLR,≤ 0.2
19,KRWQ,≤ 0.2
20,HPGF,≤ 0.2
21,NNRT,≤ 0.2
22,HKDQ,≤ 0.2
23,HLCS,≤ 0.2
24,KKKC,≤ 0.2
25,RIIT,≤ 0.2
26,QWVL,≤ 0.2

row,Variant,one-hybrid fitness for binding NBS DNA
1,KPYS,≤ 0.2
2,RRCQ,0.258
3,RQCH,≤ 0.2
4,KTLE,≤ 0.2
5,GTLR,≤ 0.2
6,LHNL,≤ 0.2
7,IDRY,≤ 0.2
8,RHPE,≤ 0.2
9,GSTE,≤ 0.2
10,REQM,≤ 0.2
11,SHFG,≤ 0.2
12,KSKN,≤ 0.2
13,VADN,≤ 0.2
14,LPVV,≤ 0.2
15,RCWR,0.405
16,HAFG,≤ 0.2
17,LGPE,≤ 0.2
18,TWRI,≤ 0.2
19,RCCR,0.45
20,ESYL,≤ 0.2
21,PNSM,≤ 0.2
22,VVWR,≤ 0.2
23,SYSA,≤ 0.2
